# Reference: PubChem BioAssay AID1345082 (National Center for Advancing Translational Sciences (NCATS), 2018)
# Out of some 94,000 compounds screened, about 4,000 (4.3%) were called active. This list was built around the results that the source calls inconclusive (neither active nor inactive); the mix of calls is not that of the screen. Calls follow the shape of the dose curve; as a rule, active = well fitted inhibition curve with a large enough effect; inconclusive = small, poorly fitted or top-dose-only effect; inactive = no such curve, though single readings can be large or run the other way. A potency beside an inconclusive call is a rough fit, not a confirmed value.
# Assay: Cytotoxic Profiling in NIH 3T3 Cell Line of Diverse Libraries Using Quantitative High-Throughput Screening; also: nearly all actives have a fitted effect of over 55% in size
# Settings: NIH 3T3 viability, CellTiter-Glo ATP luminescence, 48-72 h; series mostly up to 96.7 µM
# Outline: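 Cytotoxicity is measured as loss of cellular ATP: NIH 3T3 cells (400/well) are exposed to compound for 48 or 72 hr at 37 °C, then CellTiter-Glo luminescence is imaged after 10 min at room temperature.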
# Potency is read from the fitted curve at half-maximal effect; tags tell the direction and shape of the fitted curve.
row,Structure (SMILES),Potency
1,CNC(=O)c1nc2cccnc2n(-c2ccccc2OC)c1=O,inactive
2,C[C@@H]1C(=O)O[C@H]2[C@H]1CC[C@@]1(C)Cc3sc(NS(=O)(=O)c4ccc(F)c(Cl)c4)nc3[C@@H](C)[C@H]21,"inconclusive: 50.1 µM [inhibitor, partial curve, poor fit]"
3,Cc1ccc(C(=O)N[C@H]2C[C@@H](c3nc(-c4ccc5c(c4)OCO5)no3)N(C)C2)cc1,active: 79.4 µM
4,COc1ccc(CNC(=O)c2cc3n(n2)CC(c2ccc4c(c2)OCO4)OC3)cc1OC (stereo not drawn),"inconclusive: 28.2 µM [inhibitor, partial curve, poor fit]"
5,COc1ccccc1Nc1ncc2c(n1)CN(C(=O)c1ccc(Cl)cc1)CCN2,"inconclusive: 112 µM [inhibitor, single point]"
6,Cc1nc(CN2CCCC(CCc3ccccc3C(F)(F)F)C2)no1 (stereo not drawn),"inconclusive: 50.1 µM [inhibitor, partial curve, poor fit]"
7,C[S+](=O)([O-])c1ccc(-c2cc(-c3cccnc3)c3cncn3c2)cc1,"inconclusive: 50.1 µM [inhibitor, partial curve, poor fit]"
8,CC1(c2ccccc2)N(Cc2ccc(O)cc2)C(=O)OC12CCN(Cc1ccc(C#N)cc1)CC2 (stereo not drawn),"inconclusive: 28.2 µM [inhibitor, full curve]"
9,Cc1onc(C(=O)N2CCCCCCNC(=O)[C@@H]3CCCC[C@@H]32)c1Cn1cccn1,inactive
10,CN(Cc1ccccc1C(F)(F)F)C(=O)Nc1ccc(Cl)cc1,active: 35.5 µM
11,O=C(COc1ccccc1)N1CCCC(c2noc(COc3ccccc3)n2)C1 (stereo not drawn),"inconclusive: 70.8 µM [inhibitor, single point]"
12,COc1cc(OC)cc(C(=O)N2CCC(Cc3nc(-c4cccc(OC)c4)no3)CC2)c1,"inconclusive: 35.5 µM [inhibitor, partial curve]"
13,NC(=O)c1cccc(-c2n[nH]c3c2CC(=O)N(Cc2ccccc2)C3)c1,"inconclusive: 56.2 µM [inhibitor, partial curve, poor fit]"
14,CCc1cccc2c(C(CC(=O)NCCc3ccc(OC)c(OC)c3)c3cccc(OC)c3)c[nH]c12 (stereo not drawn),"inconclusive: 31.6 µM [inhibitor, full curve]"
15,CN(C)CCNC(=O)c1nc2nc(-c3ccccc3)c(Nc3ccc(F)cc3)cc2n1C,"inconclusive: 35.5 µM [inhibitor, full curve, poor fit]"
16,COc1cc(OC)cc(-c2nc(C3CC(=O)N(Cc4ccccc4OC)C3)no2)c1 (stereo not drawn),"inconclusive: 44.7 µM [inhibitor, partial curve, poor fit]"
17,COc1cccc(-c2c(C(=O)NC(C)C)nc3sccn23)c1,"inconclusive: 100 µM [inhibitor, partial curve, poor fit]"
18,CC(=O)N1Cc2ccccc2CC2(CCCN(CC3CCCCC3)C2)C1 (stereo not drawn),inactive
19,CN1c2cc(C(=O)Nc3ccc(Cl)cc3)ccc2C(=O)N2CCCCC21 (stereo not drawn),"inconclusive: 50.1 µM [inhibitor, partial curve, poor fit]"
20,Cc1noc(C2CC3(CCN(C(=O)CCC4CCCC4)CC3)CN2C)n1 (stereo not drawn),inactive
21,Cc1nc2cnccn2c1C(=O)NCc1ccc(Cl)cc1,inactive

row,Structure (SMILES),Potency
1,O[C@@H]1CO[C@H]2[C@@H]1OC[C@@H]2n1nnnc1-c1ccc(-c2ccccc2)cc1,"inconclusive: 100 µM [inhibitor, partial curve]"
2,COc1ccc(Cl)cc1-c1ccc2c(c1)C(=O)N1CCN(C(=O)C3CC3)C[C@@H]1C(=O)N2,"inconclusive: 112 µM [inhibitor, single point]"
3,CC1(COc2cccnc2)COc2ccc(C(=O)NCc3cccs3)cc2N1 (stereo not drawn),"inconclusive: 31.6 µM [inhibitor, partial curve, poor fit]"
4,COC(=O)c1cccc(C(=O)N2CCC(Cc3nc(-c4ccc(F)cc4)no3)CC2)c1,"inconclusive: 6.31 µM [inhibitor, full curve, poor fit]"
5,O=C(NCc1nnc2ccc(-c3ccccc3)nn12)c1cc(F)ccc1Cl,"inconclusive: 50.1 µM [inhibitor, partial curve, poor fit]"
6,CC(C)Oc1ccc(CN2CCC3(CCNCC3)C2)cc1,"inconclusive: 50.1 µM [inhibitor, partial curve, poor fit]"
7,O[C@]1(c2ccccc2)CCN(Cc2ccco2)C[C@H]1N1CCCC1,"inconclusive: 44.7 µM [inhibitor, partial curve, poor fit]"
8,COc1ccc(NC(=O)N[C@H]2CO[C@H]3[C@@H]2OC[C@@H]3n2cc(-c3ccccc3)nn2)cc1,"inconclusive: 79.4 µM [inhibitor, partial curve, poor fit]"
9,COc1ccc(Cl)cc1-c1cc2c(cn1)CN(Cc1cccnc1)CCN2,"inconclusive: 89.1 µM [inhibitor, partial curve, poor fit]"
10,Cc1cn2nnc(C(=O)N3CCC(C(=O)Nc4cccc(F)c4)CC3)c2c(=O)[nH]1,inactive
11,Cc1ccc(-c2cc(N3CCCN(C(=O)Cc4ccc(F)cc4)CC3)n[nH]2)cc1C,"inconclusive: 44.7 µM [inhibitor, partial curve, poor fit]"
12,Cn1nc(-c2cccs2)cc1-c1nc(C2CCOC2)no1 (stereo not drawn),"inconclusive: 50.1 µM [inhibitor, partial curve, poor fit]"
13,CN(Cc1ccccc1)Cc1nc2c(n1Cc1ccccc1)C(=O)N(Cc1ccccc1C#N)CCN2,"inconclusive: 70.8 µM [inhibitor, single point]"
14,Cc1ccc(Nc2ccnc(N3CCCC(C(=O)N4CCCC4)C3)n2)cc1 (stereo not drawn),active: 28.2 µM
15,COc1cccc(CN2Cc3cc(NC(=O)Cc4cccs4)ccc3OC(C)C2=O)c1OC (stereo not drawn),"inconclusive: 44.7 µM [inhibitor, partial curve, poor fit]"
16,CCc1ccc(NC(=O)Cn2c(=O)c(-c3noc(CC)n3)c3n(c2=O)CCCC3)cc1,"inconclusive: 56.2 µM [inhibitor, partial curve, poor fit]"
17,Cc1ccc(C(=O)N2CCC(C(=O)N3CCCC3c3nc4ccncc4[nH]3)CC2)cc1 (stereo not drawn),inactive
18,O=C(c1ccc2nc(-c3ccccn3)oc2c1)N1CCCCC1,active: 20 µM
19,Cc1cc(C(=O)N2CCCC2c2nc(CCOCC3CCCC3)no2)nn1C (stereo not drawn),inactive
20,CC(=O)Nc1cccc(-c2cnc3[nH]cc(CC(=O)N4CCOCC4)c3c2)c1,"inconclusive: 89.1 µM [inhibitor, partial curve, poor fit]"
21,Cn1nccc1CN1CCC2(CC1)CC(=O)N(c1ccccc1)c1ccccc1O2,inactive

row,Structure (SMILES),Potency
1,CCNC(=O)N1CCC[C@@H](O)[C@H](NC(=O)c2ccc(OCCN3CCCC3)cc2)C1,inactive
2,CC(C)NC[C@H]1O[C@@H]2C[C@@H](CC(=O)NC(C)C)O[C@@H]2[C@@H]1O,inactive
3,Cc1ccccc1[C@@H]1CN(C(=O)CN(C)C2CCN(C)CC2)C[C@H]1C(=O)O,inactive
4,Cc1c(-c2ccccc2F)[nH]c2ccc(CNC(=O)C3CCCN(C(N)=O)C3)cc12 (stereo not drawn),"inconclusive: 50.1 µM [inhibitor, partial curve, poor fit]"
5,Cc1ccc(C(=O)N2CCC(C(=O)N3CCC(N4Cc5cccn5C4=O)CC3)CC2)cc1,inactive
6,O=C(c1ccc2c(c1)OCO2)N1CCCC(n2cc(-c3nc(-c4ccccc4)no3)nn2)C1 (stereo not drawn),"inconclusive: 14.1 µM [inhibitor, full curve, poor fit]"
7,CCc1nnc([C@@H]2CC(F)(F)CN2C(=O)CCn2cccn2)o1,inactive
8,N#Cc1cccc(C(=O)N2CCC(Cc3nc(C4CC4)n[nH]3)C2)c1 (stereo not drawn),inactive
9,Cc1noc(-c2cn(C3CCN(C(=O)c4cccc(Cl)c4)CC3)nn2)n1,"inconclusive: 28.2 µM [inhibitor, partial curve, poor fit]"
10,CC(C(=O)NCCc1noc(-c2cccnc2)n1)c1ccccc1 (stereo not drawn),inactive
11,CCc1cccc(C)c1NC(=O)CN1C(=O)C(c2ccccc2)=NC12CCCC2,"inconclusive: 39.8 µM [inhibitor, partial curve, poor fit]"
12,CC1(c2ccccc2)N(Cc2ccccc2C#N)C(=O)OC12CCN(C(=O)CCc1cccnc1)CC2 (stereo not drawn),"inconclusive: 56.2 µM [inhibitor, partial curve, poor fit]"
13,CCOC(=O)C1CCN(C(=O)c2cn3cc(-c4cccc(OC)c4)sc3n2)CC1,"inconclusive: 50.1 µM [inhibitor, partial curve, poor fit]"
14,COC[C@@H]1CN(C(=O)c2cccc(C)c2)C[C@H]1c1nc(C2CC2)no1,inactive
15,Cc1nn2c(N3CCC(O)C3)cc(-c3ccccc3)nc2c1C (stereo not drawn),"inconclusive: 50.1 µM [inhibitor, partial curve, poor fit]"
16,O=C(NCC1CC1)c1nc2cccnc2n(Cc2ccccc2)c1=O,"inconclusive: 89.1 µM [inhibitor, partial curve]"
17,COc1ccc(OC)c(CN2CCCn3nc(C)c(-c4ccnn4C(C)C)c32)c1,inactive
18,CC(=O)Nc1ccc(CN2CCCC23Cc2ccccc2CN(C(=O)C(C)C)C3)cc1 (stereo not drawn),inactive
19,COc1ccccc1Nc1ccnc(N2CCC(NC(=O)C(C)C)CC2)n1,"inconclusive: 39.8 µM [inhibitor, partial curve, poor fit]"
20,CN1C(=O)C2(CCN(C(=O)COc3ccc(Cl)cc3)C2)c2ccccc21 (stereo not drawn),"inconclusive: 35.5 µM [inhibitor, partial curve, poor fit]"
21,O=C1Nc2ccccc2CC12CCCN2C1CCCCC1 (stereo not drawn),"inconclusive: 100 µM [inhibitor, partial curve, poor fit]"
